# Test results published in the supplement of paper PMC4723716.
# Where “and” joins values, the source holds several entries; their conditions need not be identical. Identical values can stand only once. ± gives the uncertainty stated by the source. The full ranking holds about 9,900 compounds; the median of “viability index relative to DMSO control” is about 1, and the lowest 2% start at about 0.85. This is one part of the list.
# Test system: Plasmodium falciparum NF54 stage V gametocytes
# Test: viability index relative to DMSO control (fraction); higher = less gametocyte killing
# Details: 2.5 µM, library set: Broad Institute DOS, incubation time: 72 h
# In short: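 Viability index is the count of red-stained particles in a well divided by the plate mean of solvent-only wells. Particles of 20–70 µm2 were counted in one imaged field per well after one to two hours with 3 µl of 2.5 µM MitoTracker Red CMXRos and 0.13% saponin. Before staining, P. falciparum NF54 stage V gametocytes in serum-free medium (0.75% gametocytemia, 1.25% hematocrit, 10 µl, 1,536-well plates) were kept with compound at 2.5 µM for 72 hr at 37°C under low oxygen.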
row,Structure (SMILES),viability index
1,CN1C(=O)c2cc(NC(=O)c3cccc(F)c3)ccc2OC[C@H]2O[C@H](CC(=O)NCC3CCCCC3)CC[C@H]21,0.987 and 1.19
2,COc1ccc2c3c([nH]c2c1)[C@@H](CO)N(C[C@]31CN(C1)C(=O)c1ccccc1)S(C)(=O)=O,1.01 ± 0.069
3,COc1cccc(NC(=O)N2CC(=O)N3[C@H](C2)[C@H](c2ccc(C#CCC4CCCC4)cc2)[C@@H]3CO)c1,1.11 ± 0.027
4,C[C@@H]1CN([C@H](C)CO)C(=O)c2cc(-c3cccc(C(=O)N(C)C)c3)cnc2O[C@@H]1CN(C)C(=O)Cc1ccccn1,0.952 ± 0.12
5,CN(C)C(=O)c1ccc(-c2ccc([C@H]3[C@@H]4CN(Cc5ccc6c(c5)OCO6)C[C@H]3N4)cc2)cc1,1.07 ± 0.09
6,COc1cccc(C#Cc2ccc([C@@H]3[C@@H](C#N)N(C(=O)c4ccccn4)[C@H]3CO)cc2)c1,1.04 ± 0.029
7,COc1ccc2c3c([C@@H](CO)N(C[C@]33CN(Cc4nccs4)C3)C(=O)Nc3cccc(F)c3)n(C)c2c1,1.03 ± 0.062
8,O=C(C[C@H]1CC[C@H]2[C@@H](COC[C@@H](O)CN2Cc2cc(F)cc(F)c2)O1)Nc1nccs1,1.12 ± 0.055
9,COc1ccc(CN2C[C@@H](O)COC[C@H]3O[C@H](CC(=O)N(C)C)CC[C@@H]32)cc1,1.05 ± 0.051
10,CN1C(=O)c2cc(NS(=O)(=O)c3ccccc3F)ccc2OC[C@@H]2O[C@@H](CC(=O)NC3Cc4ccccc4C3)CC[C@@H]21,1.109 ± 0.0019
11,Cc1ccc(S(=O)(=O)N[C@H]2C=C[C@@H](CC(=O)NCc3ccc(Cl)c(Cl)c3)O[C@@H]2CO)cc1,0.946 ± 0.095
12,Cc1noc(C)c1NC(=O)N(C)C[C@@H]1Oc2ccc(NC(=O)CCCN(C)C)cc2C(=O)N([C@@H](C)CO)C[C@@H]1C,0.955 ± 0.084
13,CO[C@@H]1CN(C)C(=O)c2cc(NC(=O)c3ccc(F)cc3)ccc2OC[C@@H](C)N(C(=O)CC2CC2)C[C@@H]1C,1.15 ± 0.064
14,CN1C(=O)c2cc(NC(=O)Nc3ccccc3F)ccc2OC[C@H]2O[C@H](CC(=O)NCCc3ccncc3)CC[C@@H]21,0.946 ± 0.048
15,C/C=C/c1ccc([C@@H]2[C@@H](CN(C)C(=O)CC3CC3)N(C(=O)C3CC3)[C@H]2CO)cc1,1.03 ± 0.013
16,COCC(=O)Nc1ccc2c(c1)C(=O)N(C)C[C@@H](OC)[C@H](C)CN(C(=O)c1ccncc1)[C@@H](C)CO2,1.07 ± 0.077
17,CCCC#Cc1ccc([C@@H]2[C@H]3CN(S(=O)(=O)c4ccccc4C)CC(=O)N3[C@H]2CO)cc1,1.07 ± 0.058
18,COc1cccc(C#Cc2ccc3c(c2)[C@@H]2[C@@H](CCN2C(=O)c2ccccc2F)[C@@H](CO)N3)c1,1.04 ± 0.12
19,CCNC(=O)[C@H]1[C@H](CO)[C@H]2Cn3c(ccc(-c4ccncc4)c3=O)[C@H]2N1Cc1cc(F)ccc1F,1.09 ± 0.004
20,OC[C@@H]1[C@@H](c2ccccc2)C2(CN(Cc3ccccn3)C2)N1CCC(F)(F)F,1.12 ± 0.045
21,N#C[C@@H]1[C@H](c2ccc(-c3cncnc3)cc2)[C@@H](CO)N1C(=O)Cc1ccccc1,1.03 ± 0.071
22,CS(=O)(=O)N1[C@H](C#N)[C@@H](c2ccc(-c3ccccc3F)cc2)[C@@H]1CO,1.15 ± 0.082
23,CCCNC(=O)N(C)C[C@H]1Oc2cc(C#C[C@H](C)O)ccc2S(=O)(=O)N([C@@H](C)CO)C[C@@H]1C,1.02 ± 0.041
24,CN1[C@H](CO)[C@@H]2c3ccccc3N(C(=O)Nc3cc(F)ccc3F)C[C@@H]21,0.965 ± 0.081

row,Structure (SMILES),viability index
1,C[C@H](CO)N1C[C@H](C)[C@@H](CN(C)C(=O)Nc2cccc(C(F)(F)F)c2)OCc2ccccc2-c2ccccc2C1=O,1.03 ± 0.062
2,C[C@H](CO)N1C[C@H](C)[C@H](CN(C)S(=O)(=O)c2cccc(C#N)c2)OCc2cn(nn2)CCCC1=O,1.08 ± 0.03
3,COCCN(C[C@H]1[C@H](c2ccccc2)[C@H](CO)N1C(C)=O)C(=O)c1cccnc1,1.02 ± 0.032
4,COc1ccc2c3c([nH]c2c1)[C@H](CO)N(C[C@]31CCN(Cc2cc(on2)-c2ccccc2)CC1)C(C)=O,1.02 ± 0.026
5,C[C@H](CO)N1C[C@H](C)[C@H](CN(C)Cc2cccc3c2OCCCO3)OCc2ccccc2-c2ccccc2C1=O,1.04 ± 0.039
6,Cc1ccc(S(=O)(=O)Nc2ccc3c(c2)C(=O)N(C)[C@@H]2CC[C@@H](CC(=O)NCCc4ccncc4)O[C@@H]2CO3)cc1,0.9542 ± 0.0036
7,CCS(=O)(=O)N1[C@H](CO)[C@H](c2ccc(C#CCC3CCCC3)cc2)[C@@H]1C#N,1.05 ± 0.049
8,COc1ccccc1C#Cc1ccc([C@H]2[C@H]3CN(C(=O)C4CCC4)CCCCN3[C@H]2CO)cc1,0.971 ± 0.013
9,CCN(C[C@H]1[C@H](c2ccccc2)[C@@H](CO)N1C(C)=O)C(=O)NC1CCCC1,1.04 ± 0.11
10,Cc1noc(C)c1NC(=O)Nc1ccc2c(c1)C(=O)N(C)[C@@H]1CC[C@H](CC(=O)N[C@@H]3CCN(Cc4ccccc4)C3)O[C@@H]1CO2,1.09 ± 0.097
11,COCCN(C[C@@H]1[C@@H](c2ccccc2)[C@H](CO)N1C(C)=O)C(=O)c1cccnc1,1.01 ± 0.012
12,CC(C)(C)[S@@](=O)N1Cc2cc(C(=O)NCCc3ccncc3)nc(-c3cccc(-c4cccc(C#N)c4)c3)c2[C@H]1CCO,1.06 ± 0.084
13,CN1c2ccc(C#Cc3ccccc3F)cc2[C@H]2[C@H](CCN2C(=O)c2cnccn2)[C@H]1CO,1.022 ± 0.0037
14,C[C@@H]1CN([C@H](C)CO)C(=O)c2cc(-c3cccc(C(=O)N(C)C)c3)cnc2O[C@H]1CN(C)C(=O)Cc1ccccn1,0.974 ± 0.024
15,Cc1noc(C)c1S(=O)(=O)N(C)C[C@@H]1Oc2c(NC(=O)c3ccc(-c4nccs4)cc3)cccc2C(=O)N([C@H](C)CO)C[C@@H]1C,0.978 ± 0.068
16,CC(C)NC(=O)N1[C@H](CO)[C@@H](c2ccccc2)C12CN(C(=O)Cc1cccnc1)C2,1.06 ± 0.038
17,CN(C)C(=O)c1cccc(-c2ccc([C@@H]3[C@H](CO)N4CCCCN(CC5CCOCC5)C[C@@H]34)cc2)c1,1.09 ± 0.05
18,CC(=O)NC[C@H]1[C@@H](c2ccc(C#CC(C)C)cc2)[C@@H](CO)N1Cc1ccccn1,1.01 ± 0.082
19,Cc1ccccc1-c1ccc2c(c1)O[C@H](CN(C)C(=O)Nc1ccc(C(F)(F)F)cc1)[C@H](C)CN([C@@H](C)CO)S2(=O)=O,1.09 ± 0.089
20,O=C(C1CCOCC1)N1CC(=O)N2[C@H](CO)[C@@H](c3ccc(/C=C/c4ccccc4)cc3)[C@H]2C1,0.972 ± 0.028
21,CO[C@H]1CN(C)C(=O)c2ccc(NC(=O)c3cc(C)on3)cc2OC[C@H](C)NC[C@H]1C,0.98 ± 0.029
22,CCOC(=O)CCCCCC(=O)Nc1ccc2c(c1)C(=O)N([C@@H](C)CO)C[C@H](C)[C@H](CN(C)C(=O)Nc1ccc(C(F)(F)F)cc1)OCCCC[C@H](C)O2,1.052 ± 0.0074
23,CCCC#Cc1ccc([C@@H]2[C@@H](CO)N3C(=O)CN(S(=O)(=O)c4ccccc4C)C[C@H]23)cc1,0.99 ± 0.01
24,CC(C)c1cn(CC[C@H]2CC[C@@H](NS(=O)(=O)c3ccc(F)cc3)[C@H](CO)O2)nn1,1.13 ± 0.1

row,Structure (SMILES),viability index
1,O=C(C[C@@H]1C[C@H]2c3cc(NC(=O)NC4CCCC4)ccc3O[C@H]2[C@@H](CO)O1)NCc1ccccc1F,1.11 ± 0.13
2,O=C(Cc1cccnc1)N1CC(=O)N2[C@@H](CO)[C@H](c3ccc(C4=CCCCC4)cc3)[C@@H]2C1,0.946 ± 0.03
3,CO[C@H]1CC[C@H]2CCOc3ccc(C#N)cc3C(=O)N(C)C[C@H](c3ccccc3)CC(=O)N(C)C[C@@H]1O2,1.06 ± 0.056
4,CO[C@H](CN(C)C(=O)C1CCOCC1)[C@@H](C)CN([C@@H](C)CO)S(=O)(=O)c1ccccc1,1.04 ± 0.028
5,CO[C@H]1CC[C@@H]2CCOc3c(C#N)cccc3C(=O)N(C)C[C@@H](OC)[C@H](C)C(=O)N(C)C[C@H]1O2,1.02 ± 0.093
6,COc1cccc(-c2ccc3c(c2)[C@@H]2[C@@H](CCN2S(=O)(=O)C2=NC(C)C=N2)[C@@H](CO)N3C)c1 (stereo not given in full),1.11 ± 0.084
7,COc1ccc(NC(=O)N2C[C@H](O)COC[C@H]3O[C@@H](CC(=O)N4CCCCC4)CC[C@@H]32)cc1,0.996 ± 0.018
8,COCCNC(=O)C[C@H]1CC[C@H]2[C@@H](COC[C@H](O)CN2Cc2ccc(Cl)c(Cl)c2)O1,1.02 ± 0.11
9,COc1ccc2c3c([C@@H](CO)N(Cc4ccccc4)C[C@]33CN(CC4CC4)C3)n(C)c2c1,0.893 ± 0.22
10,COc1ccc(C[C@@H]2CCn3cc(nn3)COCCCNC2=O)cc1,0.963 ± 0.13
11,O=C(NCC[C@@H]1CC[C@H](NC(=O)c2ccccc2F)[C@@H](CO)O1)c1cnccn1,0.998 ± 0.067
12,COc1ccccc1CNC(=O)C[C@H]1CC[C@@H]2[C@H](COc3ccc(NC(C)=O)cc3C(=O)N2C)O1,1.01 ± 0.16
13,CC(C)NC(=O)N[C@H]1CC[C@@H](CC(=O)NCCCN(C)C)O[C@H]1CO,0.977 ± 0.16
14,COc1ccc(C[C@H]2CCn3nncc3COC[C@H](c3ccccc3)NC2=O)cc1,1.01 ± 0.042
15,C/C=C/c1ccc2c(c1)O[C@H](CN(C)C(=O)Nc1ccc(OC)cc1)[C@H](C)CN([C@@H](C)CO)S2(=O)=O,0.988 ± 0.013
16,Cn1cnc(S(=O)(=O)N[C@H]2CC[C@@H](CC(=O)NCC3CCCCC3)O[C@H]2CO)c1,0.957 ± 0.054
17,O=C(CC(F)(F)F)N1C[C@@H]2[C@H](c3ccccc31)[C@@H](CO)N2C(=O)C1CCCCC1,1.02 ± 0.016
18,C[C@@H]1CCCCO[C@H](CN(C)C(=O)C2CCCCC2)[C@H](C)CN([C@@H](C)CO)C(=O)c2cc(NS(=O)(=O)c3ccccc3)ccc2O1,1.12 ± 0.14
19,CCCNC(=O)N1[C@H](CO)[C@H](c2ccccc2-c2ccc(OC)cc2)[C@@H]1C#N,1.11 ± 0.05
20,COc1ccc(NC(=O)N(C)C[C@@H]2OCCCC[C@@H](C)Oc3ccc(NC(=O)c4ccncc4)cc3C(=O)N([C@@H](C)CO)C[C@H]2C)cc1,1.05 ± 0.044
21,C[C@@H]1CN([C@@H](C)CO)C(=O)CCCn2nncc2CO[C@@H]1CN(C)Cc1cccc2c1OCCCO2,1.06 ± 0.03
22,C[C@@H]1CCCCO[C@H](CN(C)S(=O)(=O)c2cn(C)cn2)[C@H](C)CN([C@H](C)CO)C(=O)c2cc(N(C)C)ccc2O1,1.05 ± 0.021
